From PubChem BioAssay AID485294 (National Center for Advancing Translational Sciences (NCATS), 2010)
About 150 (0.041%) of roughly 370,000 compounds were called active. Inconclusive results, whose numbers are uncertain, are shown with a selection of clear calls. Calls come from the whole dose curve; as a rule, active = well fitted inhibition curve with a large enough effect; inconclusive = small, poorly fitted or top-dose-only effect; inactive = flat fitted curve, though single readings scatter. No potency is given beside an inconclusive call; the fits are too rough.

These compounds were tested against Beta-lactamase (Escherichia coli (strain K12)) (UniProt P00811) (assay: qHTS Inhibitors of AmpC Beta-Lactamase (assay with detergent)). Conditions: AmpC hydrolysis of nitrocefin, absorbance 480 nm, 0.01% Triton; activity change, negative = inhibition: at 114 µM (top of the series).
Method in brief: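 AmpC (5.3 nM in the dispensed reagent) in 20 mM phosphate pH 7.0 with 0.01% (detergent screen) or 0.0001% Triton X-100 was preincubated with compounds for 15 min at room temperature. Nitrocefin was then added from an 800 uM solution, and hydrolysis was followed at 480 nm.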
Note: nearly all actives have a fitted effect of over 25% in size.
Potency is the fitted concentration of half-maximal effect; tags give direction and shape of the fitted curve.
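Throughout, for activity change, negative = inhibition: 0% = no-compound wells and -100% = no-enzyme wells.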

Sequence of UniProt P00811 (P00811 whole entry, looked up): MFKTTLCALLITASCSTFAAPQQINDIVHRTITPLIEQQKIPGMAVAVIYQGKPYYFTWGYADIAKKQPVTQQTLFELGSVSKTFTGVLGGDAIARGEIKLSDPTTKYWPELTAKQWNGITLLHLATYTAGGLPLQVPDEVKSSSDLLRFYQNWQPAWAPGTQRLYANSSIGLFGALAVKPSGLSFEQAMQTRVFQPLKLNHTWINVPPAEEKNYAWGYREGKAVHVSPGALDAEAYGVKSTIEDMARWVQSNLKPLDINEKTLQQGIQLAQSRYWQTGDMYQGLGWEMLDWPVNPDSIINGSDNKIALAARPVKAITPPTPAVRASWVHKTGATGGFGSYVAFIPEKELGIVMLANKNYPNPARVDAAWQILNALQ

SMILES	activity change, negative = inhibition	Potency
COc1cccc(CNC(=O)CCc2c(C)c3cc4c(C)coc4c(C)c3oc2=O)c1	inactive: 0.224%	
COc1cccc(NC(=O)CN(C)C(=O)CSCc2nc3scc(-c4cccs4)c3c(=O)[nH]2)c1		inconclusive [inhibitor, full curve, poor fit]
Cc1ccc(NC(=O)COC(=O)CNC(=O)c2ccco2)cc1		inconclusive [inhibitor, full curve, poor fit]
CC[n+]1c(/C=C/Nc2ccccc2)sc2ccccc21		inconclusive [inhibitor, single point]
COc1ccc(CC(=O)Nc2ccccc2C(C)=O)cc1S(=O)(=O)N1CCOCC1		inconclusive [inhibitor, partial curve, poor fit]
O=C(O)c1ccc2c(c1)C(=O)N([C@H](Cc1ccc(F)cc1)C(=O)O)C2=O	inactive: -11.4%	
O=C1CCCC2=C1C(c1ccccc1O)C1=C(CCCC1=O)O2	inactive: -7.86%	
Cc1ccc(C)c(Cn2c(=O)cc(C)c3c(C)nn(C)c32)c1	inactive: -5.43%	
O=C(Nc1ccc(F)cc1F)c1cc(-c2ccco2)on1		inconclusive [inhibitor, full curve, poor fit]
CCc1c(C)nc(SCC(=O)Nc2cccc(Br)c2)[nH]c1=O		inconclusive [inhibitor, full curve]
CCOC(=O)c1c(NC(=O)CSc2nnc(C)s2)sc2c1CCN(C)C2	inactive: -10.5%	
O=C(NCc1ccco1)C1CCN(c2nc3ccccc3n2Cc2ccccc2F)CC1	inactive: -8.19%	
Cc1ccc(NS(=O)(=O)N(C)C)cc1		inconclusive [inhibitor, single point]
Cc1cc(C)c(S(=O)(=O)/N=C2\C=CC(=O)C(Cl)=C2)c(C)c1		inconclusive [inhibitor, full curve]
COc1cccc(-c2ccc(NC(=O)C3CCCN(Cc4cnn(C)c4C)C3)cc2)c1 (stereo not drawn)		inconclusive [inhibitor, single point]
Cc1ccc(-c2c(C#N)c(N)nc3c2CCCCC3)o1		inconclusive [inhibitor, partial curve, poor fit]
CC(C)NC(=S)N1CCN(c2ncccn2)CC1		inconclusive [inhibitor, partial curve]
CCN(CC(=O)NCc1cccs1)c1ccc(S(=O)(=O)N2CCOCC2)cn1		inconclusive [inhibitor, full curve]
COc1ccccc1CCC(=O)NNC(=O)c1ccncc1		inconclusive [inhibitor, full curve, poor fit]
C/C(=N\NC(=O)c1cccc(C)c1)c1cccc(NC(=O)c2ccco2)c1		inconclusive [inhibitor, partial curve]
O=C(NC1CCCCC1)c1ccc2c(c1)N(Cc1ccc(Cl)cc1)C(=O)c1ccccc1S2=O (stereo not drawn)		inconclusive [inhibitor, single point]
O=C(c1ccc(F)cc1)n1nc(-c2ccccc2)nc1NCc1ccco1		inconclusive [inhibitor, single point]

SMILES	activity change, negative = inhibition	Potency
C=CCNC(=O)C1CC2Cn3c(nc4cc(C)c(C)cc43)C2N1C (stereo not drawn)	inactive: -4.99%	
Cc1cccc(N2CCN(c3nc4ccc(C)cc4n4cnnc34)CC2C)c1 (stereo not drawn)	inactive: -1.75%	
COc1cccc(CNC(=O)Cn2cccc2C(=O)c2ccccc2C)c1	inactive: 3.46%	
O=C(NC1CCCCC1)N1CCc2ccccc21		inconclusive [inhibitor, full curve, poor fit]
O=C(N/N=C/c1c(O)ccc2ccccc12)c1ccc(Br)o1		inconclusive [inhibitor, full curve, poor fit]
COC(=O)c1cn(NC(=O)Cc2ccc(Cl)cc2)c(=O)c2ccccc12		inconclusive [inhibitor, full curve, poor fit]
O=C(Nc1ccccc1)c1ccc(NCCN2CCOCC2)c(S(=O)(=O)N2CCOCC2)c1		inconclusive [inhibitor, single point]
O=C(C1CCN(S(=O)(=O)c2cccc3cccnc23)CC1)N1CCN(c2ccc(Cl)cc2)CC1		inconclusive [inhibitor, full curve, poor fit]
COc1ccc(-c2csc3ncnc(N4CCN(S(=O)(=O)c5ccc(C)c(C)c5)CC4)c23)cc1	inactive: -12.6%	
O=S(=O)(c1cc(Cl)ccc1Br)N1CCOCC1		inconclusive [inhibitor, single point]
CC(C)N(C(=O)CSc1nc2ccccc2n1Cc1ccc(F)cc1)C(C)C		inconclusive [inhibitor, single point]
COc1ccc(N2CCN(C(=O)c3cc(S(=O)(=O)N4CCC(C)CC4)cn3C)CC2)cc1	inactive: -0.139%	
CCCCn1c(-c2ccco2)n[nH]c1=S	inactive: -4.46%	
Cc1nn(-c2ccccc2)c(Cl)c1C(=O)NCC(C)c1ccccc1 (stereo not drawn)		inconclusive [inhibitor, full curve, poor fit]
CSCCC(=O)N(C)CC1CCN(CCc2cccc(C(F)(F)F)c2)CC1		inconclusive [inhibitor, partial curve, poor fit]
O=C(O)c1ccc2c(c1)C(=O)N([C@H](Cc1ccc(Cl)cc1)C(=O)O)C2=O		inconclusive [inhibitor, full curve]
CCC(C)NC(=O)C1CCCN(C(=O)NC2CCCCC2)C1 (stereo not drawn)		inconclusive [inhibitor, full curve]
Cc1nc(C)n(CC(C)C(=O)N2CCN(S(=O)(=O)c3ccc(Cl)cc3)CC2)n1 (stereo not drawn)		inconclusive [inhibitor, full curve, poor fit]
COc1ccc(CC(=O)Nc2ccc(-c3cn4ccc(C)cc4n3)cc2)cc1		inconclusive [inhibitor, single point]
CCOc1ccc(-n2cc(C(=O)NCc3ccco3)c3cc(OC)c(OC)cc3c2=O)cc1		inconclusive [inhibitor, full curve, poor fit]
CC(C)(Oc1ccc(Cl)cc1)C(=O)Nc1nc2ccc(S(C)(=O)=O)cc2s1	inactive: 12%	
